Source: paper PMC4336329 (PLoS ONE, 2015)
Out of some 310,000 compounds screened, about 2,200 (0.71%) showed an effect of 50% or more. The effect is printed as a negative number. This is one part of the list.

The compounds below were run against human ether-à-go-go-related gene (hERG) potassium channel (human, UniProt Q12809) (assay: primary screen, population patch clamp on CHO cells stably expressing hERG).
Sequence of human ether-à-go-go-related gene (hERG) potassium channel (Q12809 whole entry, looked up): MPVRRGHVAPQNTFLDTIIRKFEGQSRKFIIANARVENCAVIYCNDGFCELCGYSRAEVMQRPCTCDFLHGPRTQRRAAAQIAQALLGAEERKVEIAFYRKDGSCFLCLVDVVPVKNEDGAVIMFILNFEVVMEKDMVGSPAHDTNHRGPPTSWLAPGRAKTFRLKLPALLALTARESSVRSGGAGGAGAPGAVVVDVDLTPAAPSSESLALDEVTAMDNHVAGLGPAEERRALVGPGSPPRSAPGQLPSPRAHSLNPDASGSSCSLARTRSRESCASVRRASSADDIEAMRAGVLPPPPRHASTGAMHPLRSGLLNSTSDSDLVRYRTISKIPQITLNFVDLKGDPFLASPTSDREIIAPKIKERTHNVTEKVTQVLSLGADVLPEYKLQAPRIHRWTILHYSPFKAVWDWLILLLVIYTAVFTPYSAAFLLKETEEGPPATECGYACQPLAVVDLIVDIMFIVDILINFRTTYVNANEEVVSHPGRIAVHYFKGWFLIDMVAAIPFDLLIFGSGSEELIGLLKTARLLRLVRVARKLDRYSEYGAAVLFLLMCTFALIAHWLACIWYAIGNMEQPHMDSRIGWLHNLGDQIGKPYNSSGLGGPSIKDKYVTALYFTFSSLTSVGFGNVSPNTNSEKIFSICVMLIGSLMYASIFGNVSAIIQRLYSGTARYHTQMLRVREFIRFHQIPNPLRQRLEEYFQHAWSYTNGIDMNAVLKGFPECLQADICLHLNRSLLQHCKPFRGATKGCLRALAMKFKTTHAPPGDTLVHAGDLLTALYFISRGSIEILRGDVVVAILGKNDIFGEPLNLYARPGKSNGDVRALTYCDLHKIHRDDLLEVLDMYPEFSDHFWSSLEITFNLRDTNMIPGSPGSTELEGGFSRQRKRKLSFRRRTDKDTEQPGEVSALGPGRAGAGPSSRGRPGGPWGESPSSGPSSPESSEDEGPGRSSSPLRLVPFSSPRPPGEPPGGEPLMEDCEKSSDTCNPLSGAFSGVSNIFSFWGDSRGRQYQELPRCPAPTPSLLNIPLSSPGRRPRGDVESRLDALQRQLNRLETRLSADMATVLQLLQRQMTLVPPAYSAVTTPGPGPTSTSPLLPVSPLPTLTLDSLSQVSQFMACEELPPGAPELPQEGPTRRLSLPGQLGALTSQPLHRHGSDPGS

Row | SMILES | hERG current change (%, negative = inhibition) at 1uM [%]
1 | CC(C)(C)NC(=O)C(c1cccs1)N(C(=O)C(=O)NC1CCCC1)c1ccccc1F (centres unmarked) | 10.3
2 | O=C(/C=C/c1ccc(Cl)c(Cl)c1)NC1=NCCS1 | 17.7
3 | COC(=O)/C=C(\C)NC(=O)c1cccs1 | 9.88
4 | O=C(COC(=O)CCC(=O)Nc1nccs1)NCc1ccco1 | 10.5
5 | CCOc1cc(CNC2CCCC2)cc(Cl)c1OCc1ccc(F)cc1.Cl | 12.7
6 | O=C(COC(=O)c1ccc([N+](=O)[O-])o1)Nc1cccc(S(=O)(=O)N2CCOCC2)c1 | -0.328
7 | c1cc(C2OCCN2CC2COC3(CCCC3)O2)ccn1 (centres unmarked) | 8.3
8 | CCOC(=O)[C@H](CCc1ccccc1)N[C@@H](C)C(=O)N1CCC[C@@H]1C(=O)O.O=C(O)/C=C\C(=O)O | 12.2
9 | Cc1nn(C)c(C)c1NS(=O)(=O)c1ccccc1 | 14.8
10 | CC1(C)Oc2ccc(NC(=O)C3COc4ccccc4O3)cc2O1 (centres unmarked) | 7.61
11 | Cc1ccc(CNC(=O)Cn2cnc3cc([N+](=O)[O-])ccc3c2=O)cc1 | -3.95
12 | O=C(COc1ccc(Cl)cc1Cl)N1CCCCCC1 | 6.67
13 | Fc1ccc(NC(=S)N2CCn3cccc3C2c2cccnc2)cc1 (centres unmarked) | -2.7
14 | CC(C)N1C(=O)CCC1C(=O)NCc1ccc(F)cc1Cl (centres unmarked) | 15.5
15 | COCCCN1C2=C(C(=O)CC(C)(C)C2)C(c2ccc(OC)c(OC)c2)C2=C1CC(C)(C)CC2=O | 12.5
16 | CCC1CCCCN1C(=O)COc1ccccc1NC(C)=O (centres unmarked) | 20.1
17 | COc1ccc(-c2nnn(CC(=O)N(CC(=O)NC3CCCC3)c3ccccc3F)n2)cc1OC | 13.2
18 | COc1ccc(-c2csc(NC(=O)CS(=O)(=O)c3ccccc3)n2)cc1 | 13.4
19 | COC(=O)c1cc(S(=O)(=O)N2CCN(c3cccc(Cl)c3)CC2)c[nH]1 | -0.4
20 | Cc1nc2c(-c3ccc(F)cc3)c(C)[nH]n2c(=O)c1Cl | 9.5
21 | CCOc1ccccc1Nc1ccc2nonc2c1[N+](=O)[O-] | 13.1
22 | CCC(C)n1c(SCC(=O)NCc2ccco2)nnc1-c1cccc(S(=O)(=O)N2CCOCC2)c1 (centres unmarked) | -0.662

Row | SMILES | hERG current change (%, negative = inhibition) at 1uM [%]
23 | CCOC(=O)C1CCN(C(=O)c2cc3c(=O)n4cccc(C)c4nc3s2)CC1 | 6.68
24 | COc1ccc(C(=O)N/N=C\c2coc3ccccc3c2=O)cc1 | 14.6
25 | O=C(CCc1nnc2ccc(NCc3ccccc3Cl)nn12)NCC1CCN(C2CCCC2)C1 (centres unmarked) | 11.9
26 | Cc1cc(F)ccc1S(=O)(=O)N1CCCCC1CCNC(=O)C(=O)NCCN1CCOCC1 (centres unmarked) | 12.4
27 | CCCCn1cnc2sc3c(c2c1=N)CCCC3 | -8.82
28 | CCn1c(C)c(C(=O)Nc2ccc(OC)cc2)c2cc(OC)ccc21 | 16.1
29 | CC1(C)Cc2nc3oc4c(=O)n(CC(=O)Nc5ccc(Cl)cc5)cnc4c3cc2CO1 | 16.1
30 | CCOC(=O)CNC(=O)Cn1cnc2ccc(S(=O)(=O)N3CCC(C)CC3)cc2c1=O | 8.11
31 | CCCC(C(=O)NC(C)(C)CC)N(CC1CCCO1)C(=O)CNS(=O)(=O)c1ccc(F)cc1 (centres unmarked) | -12.1
32 | Cc1cc(C)c2nc(N(CCCN(C)C)C(=O)c3ccc(S(=O)(=O)N4CCCCCC4)cc3)sc2c1.Cl | 14.2
33 | CCc1c(C)[nH]c2c(C)cccc2c1=O | 13.1
34 | COC(=O)C1=C(c2ccc(F)cc2OCc2ccccc2)C[C@@H]2CC[C@H]1N2C(=O)NC1Cc2ccccc2C1 | 11.5
35 | CN1CC(=O)N(CC(=O)Nc2cc(Cl)cc(Cl)c2)C1=O | -15.5
36 | CN(Cc1ccccc1)C(=O)CCC(=O)N(C)Cc1ccccc1 | 0.498
37 | O=C1C2C3C=CC(O3)C2C(=O)N1CC(O)c1ccccc1 (centres unmarked) | 5.01
38 | CC(C)(C)NCC(O)COCc1ccc(Cl)cc1.Cl (centres unmarked) | 7.2
39 | CCN(Cc1ccccc1)C(=O)Cn1cc2c(n1)CCCC2 | 4.9
40 | C/C(Cl)=C/CC1(CN2CCCC2=O)C(=O)NC(=O)NC1=O | 8.94
41 | Cc1ccc(NC(=S)Nc2ccccn2)c(C)c1 | 5.97
42 | Cc1ccc(S(=O)(=O)N2CCCCC2)cc1C(=O)OC1CCCCC1=O (centres unmarked) | 3.78
43 | CCOC(=O)C1CCN(C(c2cccnc2)c2c(NC(=O)c3ccco3)sc(C)c2C)CC1 (centres unmarked) | 5.23
44 | O=C(NCc1ccc2c(c1)OCO2)c1ccc(Br)o1 | 16.1

Row | SMILES | hERG current change (%, negative = inhibition) at 1uM [%]
45 | Cc1cccc(N/N=C(\C#N)S(=O)(=O)C(C)(C)C)c1 | 2.93
46 | [Cl-].[NH3+]CCCn1c(C(=O)c2ccc(Cl)cc2)c2ccc(C(F)(F)F)cc2[n+]1[O-] | -80.9
47 | CC(=O)Nc1ccc(NS(=O)(=O)c2ccc(-c3cnc(C4CC4)o3)cc2)cc1 | 10.4
48 | CC1CC(Nc2ccccc2)c2ccccc2N1C(=O)c1ccncc1 (centres unmarked) | 5.72
49 | CCOc1ccccc1NC(=O)CSc1nc2cc(O)ccc2c(=O)n1-c1ccc(OC)c(OC)c1 | 16.9
50 | O=C(CSc1nccc(=O)[nH]1)Nc1ccc2c(c1)OCCO2 | 29.9
51 | CCc1nc2scc(-c3cccs3)c2c(=O)o1 | 5.7
52 | CN(CC(=O)Nc1cccc(S(=O)(=O)N2CCCC2)c1)CC(=O)Nc1ccc(Cl)c(C(F)(F)F)c1 | -7.97
53 | CCOC(=O)C1CCN(S(=O)(=O)c2ccc3c(c2)CCN3C(=O)C2CCC2)CC1 | 13.4
54 | COc1ccccc1OCC(O)Cn1c(Br)nc2c1c(=O)[nH]c(=O)n2C (centres unmarked) | 4.9
55 | Cc1cc(N2CCCC(C(=O)Nc3cccc4ccccc34)C2)n2ncnc2n1 (centres unmarked) | -4.76
56 | CCOC(=O)C1CCN(C(C(=O)Nc2ccc3c(c2)OCCO3)c2ccccc2)CC1 (centres unmarked) | 3.81
57 | Cc1ccc(-c2nc3cccnc3o2)cc1NC(=O)COc1ccc(C(C)(C)C)cc1 | 7.31
58 | COc1ccc(-n2c(O)c(C=NCCN(C)C)c(=O)[nH]c2=O)cc1 | 6.45
59 | O=c1cc(CSc2ccc(S(=O)(=O)N3CCCCC3)cn2)nc2sccn12 | 2.89
60 | NS(=O)(=O)c1ccc(NC(=O)COC(=O)C2CCCCC2)cc1 | 4.34
61 | COc1ccc(OC)c(-n2c(SC)nnc2-c2c[nH]c3ccccc23)c1 | 3.38
62 | COc1ccc(C(=O)N/C(=C/c2cccnc2)C(=O)N2CCN(C)CC2)cc1OC | 2.99
63 | CN(Cc1nc2ccccc2c(=O)[nH]1)Cc1cc(=O)oc2ccc3ccccc3c12 | -8.72
64 | Cc1ccc(-c2cn(CCN)c(-c3ccc(Cl)nc3)n2)cc1 | 7.05
65 | Cc1ccc(NC(=O)Cn2c3ccc(F)cc3c3nc4n(c(=O)c32)CCS4)cc1F | 11.7
66 | CCOC(=O)C1CCN(C(=O)c2ccccc2NS(=O)(=O)c2ccc(F)cc2)CC1 | 1.41

Row | SMILES | hERG current change (%, negative = inhibition) at 1uM [%]
67 | COc1cc(OC)c(C(=O)OC(C)C(=O)Nc2cccc(C(F)(F)F)c2)cc1OC (centres unmarked) | 9.78
68 | O=C(COC(=O)c1c[nH]c2ccccc12)NC1CCCCC1 | 5.28
69 | CCN1C(=O)C2(C(C(=O)c3ccc(C)o3)=C(O)C(=O)N2CCCN2CCOCC2)c2ccccc21 (centres unmarked) | -4.6
70 | COc1cc(/C=N/NC(=O)C(=O)N2CCCCCC2)ccc1O | 16.7
71 | O=C(COC(=O)/C=C/c1ccccc1)Nc1ccccc1Br | -16.8
72 | CN1CCCN(C(=O)CSc2ccccc2)CC1 | 7.6
73 | COc1cc2[nH]c(=O)n(CCC(=O)NCc3cccnc3)c(=O)c2cc1OC | 6.67
74 | NNc1nnc2c3cc(F)ccc3n(Cc3ccccc3)c2n1 | 2.58
75 | Cn1nc(-c2ccc(Cl)cc2)c2cc(C(=O)N3CCCC3)sc21 | 10.9
76 | O=C(CSc1nnc(-c2ccc(C(F)(F)F)cn2)s1)c1ccc(Cl)cc1 | 12.4
77 | CCc1ccc(NC(=O)N(CCOC)C2CCN(C(C)=O)CC2)cc1 | -3.67
78 | O=c1c2ccccc2nc(/C=C/c2ccc(O)cc2)n1-c1cccc(O)c1 | 7.19
79 | C[N+]1(CC(=O)Nc2ccc(F)cc2)CCN(C(=O)c2ccco2)CC1.[Cl-] | 18.3
80 | CCN(CC(=O)Nc1c(F)cccc1F)C(=O)c1ccc(-c2ccccc2)cc1 | 0.769
81 | COc1ccc(-n2nnc3c(=O)n(CC(=O)N4CCC(Cc5ccccc5)CC4)cnc32)cc1 | 15.4
82 | COC(=O)c1cnc(Oc2ccc(NC(=O)NC(=O)c3c(F)cccc3F)cc2)cc1C(F)(F)F | 10.6
83 | O=[N+]([O-])c1ccc(O)c2ncccc12 | 15.7
84 | CC(OC(=O)c1cc(S(=O)(=O)N2CCOCC2)ccc1F)C(=O)NCc1ccc2c(c1)OCO2 (centres unmarked) | 6.56
85 | Cc1ccc(C(=O)N2CC(C(=O)O)C2)cc1 | 1.17
86 | CC(C)CCNC(=O)[C@@H](NC(=O)c1c(F)cccc1F)C(C)C | 8.14
